According to the supplement of paper PMC3334620:
Over roughly 33,000 sequences, “E-score (-0.5 to 0.5)” has its median near -0.01; the highest 2% begin near 0.26. The list shows a part of the results.

Target: Ste12 (UniProt P13574)
Assay: PBM E-score (8-mer binding enrichment) (E-score (-0.5 to 0.5)); higher = stronger / more preferred TF binding; most listed sequences are background and not binding sites
Conditions: protein concentration: 200 nM; construct: GST-DNA-binding domain
Method in brief: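 E-scores (a modified Wilcoxon-Mann-Whitney statistic) were assigned by the Universal PBM Analysis Suite to every ungapped eight-base word pooled with its reverse complement. The input came from universal all-10-mer Agilent arrays made double-stranded by primer extension and probed with GST-tagged yeast transcription factors at about 100-200 nM. Fluorescent anti-GST detected bound protein, and masliner normalised the scans.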

Sequence	PBM E-score
ATGCATGC	-0.142
AACGGAAC	0.195
AGCAATAA	0.152
GACTTGCA	-0.0102
AGGCAAAT	0.0327
AAAAACAG	0.172
ACCACAAT	0.0368
CCATAGAG	-0.0627
GCCGTTCA	-0.0896
GAGACCTA	-0.0109
GCGACGAC	-0.0741
AGAGTGGA	-0.165
GAACGCGC	-0.042
AGGTGAAA	0.235
ACTCACAA	-0.112
CAATGCCC	-0.153
CACCGATC	-0.0704
CCACTAGC	-0.168
AATTCATG	0.255
CCACAAGG	-0.107
GCGGATCC	-0.0376
GGCCAACA	-0.0693
ACACAGAT	-0.00222
CCCAGCGA	-0.0316
ACGAGTTC	-0.0134

Sequence	PBM E-score
CTACCTTC	0.0124
CAGCAATG	-0.104
AGACGGTG	-0.117
CAAGACAG	0.167
ACTACCCG	-0.0722
CTCATCGA	0.00039
AAAGCAGC	-0.0185
AACGCCAC	0.0348
CATGATTA	0.0888
CAAAGACG	-0.061
ATGGGGAC	-0.0895
ACCTCTCA	-0.0747
CTACTAAC	0.0522
GCCGCCGC	-0.0603
ATGCCGAC	0.0109
ATGCCGTG	-0.0726
AAGCTAGC	-0.242
AGGCTGAC	0.0313
CCATAATC	0.139
CAGGCGTC	-0.209
ACTGACAG	0.153
ATGAACAG	-0.0823
AGCGTTAG	-0.167
CCCTTAGG	-0.252
GTGAAAAA	0.232

Sequence	PBM E-score
AGAGGAAC	-0.0942
CTCCTCCA	0.0617
ATGAATAG	-0.0925
GTTATTTA	0.107
AGCTTAGC	-0.197
AAAGCTGA	0.0643
AGGTTTCC	-0.0692
CAATCGAC	-0.0787
ACGAGAGT	-0.0106
GCCCGTAA	-0.0256
AGAGTGCG	0.0047
AGATCTAA	0.0181
CGACCGAA	0.00328
GAAGTTGA	0.0671
AAGGGTAT	0.0611
GGAATAGA	-0.0989
CAGAGAAG	0.104
AATTAGCG	0.12
AGAACGTA	-0.0299
ACTTCCAG	-0.19
AGTAGCCG	-0.0626
CCCGCGCC	0.168
TCTCAACA	0.18
GAACTCGC	-0.196
AGAGTAAT	0.191

Sequence	PBM E-score
TCATTGCA	-0.0373
AGGGACAG	-0.203
ACCGCTGG	-0.148
CGCCCAAC	0.0194
CAATGCGA	-0.00861
CCTCAAAC	0.148
CCACCCCG	0.161
AACAATGA	0.0731
CCCTCCCC	0.333
ATTCTAAG	0.0129
AATGTCTC	0.14
GAAGAGGA	-0.212
ACTCTTCT	-0.14
AGGTCCGA	-0.0663
CTAGCTCC	-0.226
CATTCCCA	-0.00441
ATGCCGCA	0.0392
ACCTGGAA	0.246
GAGATTGA	0.0793
ACCATAAG	-0.16
ATATCTGA	0.103
AGACGACA	-0.0597
GTTGAAGA	-0.0561
ACCATTTA	0.0557
CTGCGGTA	-0.00141

Sequence	PBM E-score
CCAATGCG	-0.244
GAATATTA	0.235
GGGCGTAC	0.0105
TTACCTAA	0.114
CGCACGTA	-0.104
ACGCCCCC	0.147
CCCAGCTA	-0.102
GCTCATCC	-0.171
AAACCGCC	0.212
CAGACGTA	-0.138
GACCAAGA	-0.107
TTCACAAA	0.256
CAGGGATA	0.0131
AAACGCAC	0.147
GAGAACTC	-0.0376
AACAGCCC	0.00748
ATCGTACG	-0.0617
CGCGATAG	-0.0558
AGTGCCTC	-0.229
CTGCATGC	-0.0284
AGGGTCTC	-0.153
CTCCGCGC	-0.0986
AATAGCCA	-0.114
GTTGCAAA	0.0824
AATTAATC	0.105

Sequence	PBM E-score
GATCTCAC	-0.0416
TCTCGTCA	-0.0159
ATCTATGC	-0.0236
CCGACTAA	0.104
AAGATCAA	0.101
GACACTAA	0.0103
ACGATTCG	-0.0626
GGCTTAAC	0.0764
ATGAGCGG	0.0137
CGTGGAGA	-0.109
AAGGGATG	-0.0502
TCCACCGA	-0.0902
CGCTGCTA	-0.0803
ACGTCCAA	0.122
GTTGGTAA	0.0911
GAGGCAAC	-0.329
AGAGAGTA	-0.0904
TCTGGAAA	0.0671
GCTTATAC	-0.174
CCCCTCGA	0.18
CAATGGGC	0.0968
CCCAGGTA	-0.0429
CCCAATAA	0.216
ACGAGGGG	-0.032
GCGTTGAC	-0.235

Sequence	PBM E-score
TGGAGCAA	0.117
AGAATAGC	0.0321
ATCCTCGG	0.0581
AGTCGTAC	-0.335
ATCAGACG	0.0895
ACTGCGGG	-0.12
AAATGACT	-0.0927
GCAGGTTA	-0.0591
ATCTGCTC	-0.0652
AAACACAT	0.183
AGGGCCCT	-0.168
TACTGCTA	-0.0443
AACAACAA	0.253
CAACGGCC	-0.0409
AAGTGTAA	0.0939
ACTCACTG	-0.0486
CACCCGTC	-0.0737
CAAGTGGG	-0.0691
AAACGCGC	0.185
CGTGTGCA	-0.23
AGCAAGGA	-0.241
ACAGGTAG	-0.12
AGATCCAC	-0.0394
AATGTGAC	0.0792
GAGCGGAA	0.143

Sequence	PBM E-score
CACGAGGG	-0.00095
AGGACTAA	-0.113
AAAGTCAT	0.124
AGCCATTG	0.0464
GCCCAGAA	-0.171
CCTTAGCG	0.104
CTAGTAGC	0.0825
CCAGCGGC	-0.0215
ACTCATAC	0.128
CTTAGACA	-0.0564
AAGGTCTA	-0.0425
AATCGCAT	0.134
ATTGAAGC	-0.061
TATTTGAA	0.172
CCAACACA	0.0801
CCGCTGAA	0.0841
CCTGCTCA	-0.163
ACTACGAG	-0.132
AAAAAGGT	0.0926
AAGTAACA	0.291
GCCTTGAC	-0.236
ACGCCGCC	-0.0333
AGTGAGTA	0.0652
AACGCGAA	0.257
GTCGAGTA	-0.011

Sequence	PBM E-score
GTTAGACA	0.0892
CGTGTGTA	0.0989
CACTTTTA	0.0509
AATCCGGA	0.125
AATGCGTG	-0.0284
CGCCTCAA	0.00056
GGCATGAC	-0.135
TACTAATA	0.217
ATAACTAT	0.0787
CTCATCTC	-0.0387
GCGCGCAC	0.153
CGGTGACG	-0.0125
CAATACCA	0.0598
TCTACTAA	0.056
GGTAGAGA	0.047
AAATCGCG	0.129
TCCATCGA	-0.0656
TGCGCGAA	-0.0288
GTACCAAA	0.0457
